Test results: US20170107179A1 (Tetraphase Pharmaceuticals, Inc., priority 2010, published 2017)

Experiments:
[1] = tested on: Klebsiella pneumoniae KP109 (ATCC 13883); test: Minimum Inhibitory Concentration (MIC) assay, CLSI broth dilution; parameters: key: A = lower than or equal to lowest MIC among three control compounds; B = greater than lowest MIC among three control compounds, but lower than highest MIC among three control compounds; C = greater than MIC of all three control compounds; details: class vs MICs of sancycline, minocycline, tigecycline
Description: (§1) Briefly, frozen bacterial strains were thawed and subcultured onto Mueller Hinton Broth (MHB) or other appropriate media (Streptococcus requires blood and Haemophilus requires hemin and NAD). Following incubation overnight, the strains were subcultured onto Mueller Hinton Agar and again incubated overnight. […] Isolated colonies were selected to prepare a starting inoculum equivalent to a 0.5 McFarland standard. The starting inoculum was diluted 1:125 (this is the working inoculum) using MHB for further use. […] .
(§2) The assays were run as follows. Fifty μL of MHB was added to wells 2-12 of a 96-well plate. One hundred μL of appropriately diluted antibiotics was added to well 1. Fifty μL of antibiotics was removed from well 1 and added to well 2 and the contents of well 2 mixed by pipetting up and down five times. Fifty μL of the mixture in well 2 was removed and added to well 3 and mixed as above. Serial dilutions were continued in the same manner through well 12. Fifty μL was removed from well 12 so that all contained 50 μL. Fifty μL of the working inoculum was then added to all test wells. A growth control well was prepared by adding 50 μL of working inoculum and 50 μL of MHB to an empty well. The plates were then incubated at 37° C. overnight, removed from the incubator and each well was read on a plate reading mirror. The lowest concentration (MIC) of test compound that inhibited the growth of the bacteria was recorded.
(§3) The following bacterial strains, listed below, were examined in minimum inhibitory concentration (MIC) assays.

[2] = tested on: Pseudomonas aeruginosa PA111 (ATCC 27853); test: as above; parameters: key: A = lower than or equal to lowest MIC among three control compounds; B = greater than lowest MIC among three control compounds, but lower than highest MIC among three control compounds; C = greater than MIC of all three control compounds; details: class vs MICs of sancycline, minocycline, tigecycline
Description: as §1, §2, §3

Structure (SMILES): CN(C)[C@@H]1C(O)=C(C(N)=O)C(=O)[C@@]2(O)C(O)=C3C(=O)c4c(O)c5c(c(F)c4C[C@H]3C[C@@H]12)CN(C1CCCC1)C5 [Compound 100]
- MIC KP109 13883 [1]: B
- MIC PA111 27853 [2]: B

Structure (SMILES): CN(C)[C@@H]1C(O)=C(C(N)=O)C(=O)[C@@]2(O)C(O)=C3C(=O)c4c(O)c5c(c(F)c4C[C@H]3C[C@@H]12)CN(CC(C)(C)C)C5 [Compound 101]
- MIC KP109 13883 [1]: B
- MIC PA111 27853 [2]: B

Structure (SMILES): CN(C)[C@@H]1C(O)=C(C(N)=O)C(=O)[C@@]2(O)C(O)=C3C(=O)c4c(O)c5c(c(F)c4C[C@H]3C[C@@H]12)CN(C(C)(C)C)C5 [Compound 102]
- MIC KP109 13883 [1]: B
- MIC PA111 27853 [2]: B

Structure (SMILES): CN(C)[C@@H]1C(O)=C(C(N)=O)C(=O)[C@@]2(O)C(O)=C3C(=O)c4c(O)c5c(c(F)c4C[C@H]3C[C@@H]12)CN(C[C@@H]1CCCO1)C5 [Compound 104]
- MIC KP109 13883 [1]: B
- MIC PA111 27853 [2]: B

Structure (SMILES): CN(C)[C@@H]1C(O)=C(C(N)=O)C(=O)[C@@]2(O)C(O)=C3C(=O)c4c(O)c5c(c(F)c4C[C@H]3C[C@@H]12)CNC5 [Compound 105]
- MIC KP109 13883 [1]: B
- MIC PA111 27853 [2]: B

Structure (SMILES): CC(C)[C@@H](C)N1Cc2c(O)c3c(c(F)c2C1)C[C@H]1C[C@H]2[C@H](N(C)C)C(O)=C(C(N)=O)C(=O)[C@@]2(O)C(O)=C1C3=O [Compound 106]
- MIC KP109 13883 [1]: B
- MIC PA111 27853 [2]: B

Structure (SMILES): CN(C)[C@@H]1C(O)=C(C(N)=O)C(=O)[C@@]2(O)C(O)=C3C(=O)c4c(O)c5c(c(F)c4C[C@H]3C[C@@H]12)CN(CCF)C5 [Compound 107]
- MIC KP109 13883 [1]: B
- MIC PA111 27853 [2]: B

Structure (SMILES): CN(C)[C@@H]1C(O)=C(C(N)=O)C(=O)[C@@]2(O)C(O)=C3C(=O)c4c(O)c5c(c(F)c4C[C@H]3C[C@@H]12)CN(C[C@H]1CCCO1)C5 [Compound 108]
- MIC KP109 13883 [1]: B
- MIC PA111 27853 [2]: B

Structure (SMILES): CCC(C)(C)N1Cc2cc3c(c(O)c2C1)C(=O)C1=C(O)[C@]2(O)C(=O)C(C(N)=O)=C(O)[C@@H](N(C)C)[C@@H]2C[C@@H]1C3 [Compound 109]
- MIC KP109 13883 [1]: B
- MIC PA111 27853 [2]: B

Structure (SMILES): CC[C@H](C)N1Cc2c(O)c3c(c(Cl)c2C1)C[C@H]1C[C@H]2[C@H](N(C)C)C(O)=C(C(N)=O)C(=O)[C@@]2(O)C(O)=C1C3=O [Compound 110]
- MIC KP109 13883 [1]: B
- MIC PA111 27853 [2]: B

Structure (SMILES): CN(C)[C@@H]1C(O)=C(C(N)=O)C(=O)[C@@]2(O)C(O)=C3C(=O)c4c(O)c5c(c(F)c4C[C@H]3C[C@@H]12)CN(C(=O)CNC1CCCC1)C5 [Compound 111]
- MIC KP109 13883 [1]: B
- MIC PA111 27853 [2]: B

Structure (SMILES): CC[C@@H](C)N1Cc2c(O)c3c(c(Cl)c2C1)C[C@H]1C[C@H]2[C@H](N(C)C)C(O)=C(C(N)=O)C(=O)[C@@]2(O)C(O)=C1C3=O [Compound 117]
- MIC KP109 13883 [1]: B
- MIC PA111 27853 [2]: B

Structure (SMILES): CN(C)[C@@H]1C(O)=C(C(N)=O)C(=O)[C@@]2(O)C(O)=C3C(=O)c4c(O)c5c(c(F)c4C[C@H]3C[C@@H]12)CN(C(C)(C)C1CC1)C5 [Compound 118]
- MIC KP109 13883 [1]: B
- MIC PA111 27853 [2]: B

Structure (SMILES): CCC(C)N1Cc2c(O)c3c(c(F)c2C1)C[C@H]1C[C@H]2[C@H](N(C)C)C(O)=C(C(N)=O)C(=O)[C@@]2(O)C(O)=C1C3=O (stereo partly shown) [Compound 120]
- MIC KP109 13883 [1]: B
- MIC PA111 27853 [2]: B

Structure (SMILES): CC(C)CN1Cc2c(O)c3c(c(F)c2C1)C[C@H]1C[C@H]2[C@H](N(C)C)C(O)=C(C(N)=O)C(=O)[C@@]2(O)C(O)=C1C3=O [Compound 121]
- MIC KP109 13883 [1]: B
- MIC PA111 27853 [2]: B

Structure (SMILES): CC[C@H](C)N1Cc2c(O)c3c(c(F)c2C1)C[C@H]1C[C@H]2[C@H](N(C)C)C(O)=C(C(N)=O)C(=O)[C@@]2(O)C(O)=C1C3=O [Compound 123]
- MIC KP109 13883 [1]: B
- MIC PA111 27853 [2]: B

Structure (SMILES): CCC(C)(C)N1Cc2c(O)c3c(c(F)c2C1)C[C@H]1C[C@H]2[C@H](N(C)C)C(O)=C(C(N)=O)C(=O)[C@@]2(O)C(O)=C1C3=O [Compound 129]
- MIC KP109 13883 [1]: B
- MIC PA111 27853 [2]: B

Structure (SMILES): CC[C@@H](C)N1Cc2c(O)c3c(c(F)c2C1)C[C@H]1C[C@H]2[C@H](N(C)C)C(O)=C(C(N)=O)C(=O)[C@@]2(O)C(O)=C1C3=O [Compound 130]
- MIC KP109 13883 [1]: B
- MIC PA111 27853 [2]: B

Structure (SMILES): CN(C)CC(=O)N1Cc2c(O)c3c(c(F)c2C1)C[C@H]1C[C@H]2[C@H](N(C)C)C(O)=C(C(N)=O)C(=O)[C@@]2(O)C(O)=C1C3=O [Compound 131]
- MIC KP109 13883 [1]: B
- MIC PA111 27853 [2]: B

Structure (SMILES): CN(C)[C@@H]1C(O)=C(C(N)=O)C(=O)[C@@]2(O)C(O)=C3C(=O)c4c(O)c5c(c(F)c4C[C@H]3C[C@@H]12)CN(C(C)(C)CC(C)(C)C)C5 [Compound 133]
- MIC KP109 13883 [1]: B
- MIC PA111 27853 [2]: B

Structure (SMILES): COCCN1Cc2c(O)c3c(c(F)c2C1)C[C@H]1C[C@H]2[C@H](N(C)C)C(O)=C(C(N)=O)C(=O)[C@@]2(O)C(O)=C1C3=O [Compound 134]
- MIC KP109 13883 [1]: B
- MIC PA111 27853 [2]: B

Structure (SMILES): CN(C)[C@@H]1C(O)=C(C(N)=O)C(=O)[C@@]2(O)C(O)=C3C(=O)c4c(O)c5c(c(F)c4C[C@H]3C[C@@H]12)CN(C(C)(C)CO)C5 [Compound 136]
- MIC KP109 13883 [1]: B
- MIC PA111 27853 [2]: B

Structure (SMILES): CC(C)[C@H](C)N1Cc2c(O)c3c(c(F)c2C1)C[C@H]1C[C@H]2[C@H](N(C)C)C(O)=C(C(N)=O)C(=O)[C@@]2(O)C(O)=C1C3=O [Compound 137]
- MIC KP109 13883 [1]: B
- MIC PA111 27853 [2]: B

Structure (SMILES): CN(C)[C@@H]1C(O)=C(C(N)=O)C(=O)[C@@]2(O)C(O)=C3C(=O)c4c(O)c5c(c(F)c4C[C@H]3C[C@@H]12)CN(C(=O)CN1CCCC1)C5 [Compound 139]
- MIC KP109 13883 [1]: B
- MIC PA111 27853 [2]: B

Structure (SMILES): CN(C)[C@@H]1C(O)=C(C(N)=O)C(=O)[C@@]2(O)C(O)=C3C(=O)c4c(O)c5c(c(F)c4C[C@H]3C[C@@H]12)CN([C@@H]1CCOC1)C5 [Compound 140]
- MIC KP109 13883 [1]: B
- MIC PA111 27853 [2]: B

Structure (SMILES): CCCN1Cc2c(O)c3c(c(F)c2C1)C[C@H]1C[C@H]2[C@H](N(C)C)C(O)=C(C(N)=O)C(=O)[C@@]2(O)C(O)=C1C3=O [Compound 142]
- MIC KP109 13883 [1]: B
- MIC PA111 27853 [2]: B

Structure (SMILES): CC(C)N1Cc2c(O)c3c(c(F)c2C1)C[C@H]1C[C@H]2[C@H](N(C)C)C(O)=C(C(N)=O)C(=O)[C@@]2(O)C(O)=C1C3=O [Compound 143]
- MIC KP109 13883 [1]: B
- MIC PA111 27853 [2]: B

Structure (SMILES): CN(C)[C@@H]1C(O)=C(C(N)=O)C(=O)[C@@]2(O)C(O)=C3C(=O)c4c(O)c5c(c(Cl)c4C[C@H]3C[C@@H]12)CN(C(C)(C)C)C5 [Compound 144]
- MIC KP109 13883 [1]: B
- MIC PA111 27853 [2]: B

Structure (SMILES): CN(C)[C@@H]1C(O)=C(C(N)=O)C(=O)[C@@]2(O)C(O)=C3C(=O)c4c(O)c5c(c(F)c4C[C@H]3C[C@@H]12)CN(C(C)(C)CN1CCCC1)C5 [Compound 146]
- MIC KP109 13883 [1]: B
- MIC PA111 27853 [2]: B

Structure (SMILES): CN(C)[C@@H]1C(O)=C(C(N)=O)C(=O)[C@@]2(O)C(O)=C3C(=O)c4c(O)c5c(c(F)c4C[C@H]3C[C@@H]12)CN(C(=O)CN1CC[C@H](F)C1)C5 [Compound 147]
- MIC KP109 13883 [1]: B
- MIC PA111 27853 [2]: B

Structure (SMILES): CCCN1Cc2c(O)c3c(c(Cl)c2C1)C[C@H]1C[C@H]2[C@H](N(C)C)C(O)=C(C(N)=O)C(=O)[C@@]2(O)C(O)=C1C3=O [Compound 149]
- MIC KP109 13883 [1]: B
- MIC PA111 27853 [2]: B

Structure (SMILES): CCC(C)(C)N1Cc2c(O)c3c(c(Cl)c2C1)C[C@H]1C[C@H]2[C@H](N(C)C)C(O)=C(C(N)=O)C(=O)[C@@]2(O)C(O)=C1C3=O [Compound 150]
- MIC KP109 13883 [1]: B
- MIC PA111 27853 [2]: B

Structure (SMILES): CN(C)[C@@H]1C(O)=C(C(N)=O)C(=O)[C@@]2(O)C(O)=C3C(=O)c4c(O)c5c(c(F)c4C[C@H]3C[C@@H]12)CCN(C(C)(C)C)C5 [Compound 200]
- MIC KP109 13883 [1]: B
- MIC PA111 27853 [2]: B

Structure (SMILES): CN(C)[C@@H]1C(O)=C(C(N)=O)C(=O)[C@@]2(O)C(O)=C3C(=O)c4c(O)c5c(c(F)c4C[C@H]3C[C@@H]12)CCN(CC(C)(C)C)C5 [Compound 201]
- MIC KP109 13883 [1]: B
- MIC PA111 27853 [2]: B

Structure (SMILES): CN(C)[C@@H]1C(O)=C(C(N)=O)C(=O)[C@@]2(O)C(O)=C3C(=O)c4c(O)c5c(c(F)c4C[C@H]3C[C@@H]12)CCN(C1CCCC1)C5 [Compound 202]
- MIC KP109 13883 [1]: B
- MIC PA111 27853 [2]: B
